From the supplement of paper PMC10126150
Values marked as one replicate rest on one cluster of the flow cell; about a third of the high ones do not repeat.

Tested on: ATP
Assay: switch fluorescence ratio, 500 uM ATP over buffer (Cy3 cluster intensity, sum of 5 cycles each) (fold (ratio)); higher = stronger signal-on switching upon ATP binding; sequences stand for … in TCGTCGGCAGCGTCAGATGTGTATAAGAGACAGTTTTTTTTTTTTTTTTTTTTTTTTT…TC
Details: aptamer strand: ATP DNA aptamer (quencher-CACCTGGGGGAGTATTGCGGAGGAAGG + anchor), 100 nM annealed; ATP concentration: 500 uM; one replicate
Method in brief: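 After annealing to 100 nM quencher-labelled ATP aptamer, Cy3-labelled switching-strand clusters on a modified Illumina MiSeq flow-cell were imaged in selection buffer. A second image followed after 15 min with 500 uM ATP at 22 °C, and five such buffer/ATP cycles were done, each separated by NaOH stripping and re-annealing. The fluorescence ratio, averaged per switch-domain sequence, is summed target-cycle over summed buffer-cycle Cy3 intensity per cluster, with clusters outside 100-1000 RFU excluded.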
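Note: ATP exposure 15 min at 22 °C before imaging.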

Q: For GTTCCCGAGA, which switch fluorescence ratio is on record?
A: The switch fluorescence ratio was 1.05.

Q: AAAACGGTAC was tested. Which switch fluorescence ratio did it give?
A: Its switch fluorescence ratio is 1.01.

Q: With AATCAACGTG as the sequence, how does the switch fluorescence ratio read?
A: Its switch fluorescence ratio is 1.05.

Q: ATCATCCTTT was tested. Which switch fluorescence ratio did it give?
A: The switch fluorescence ratio was 0.957.

Q: TTCCATGTTC was tested. Which switch fluorescence ratio did it give?
A: Its switch fluorescence ratio is 0.964.

Q: TGCCCGAGCC was tested. Which switch fluorescence ratio did it give?
A: The switch fluorescence ratio was 1.13.

Q: How did the switch fluorescence ratio turn out when TGAGGCATAG was run?
A: The switch fluorescence ratio was 1.28.

Q: For AACGAGGTGC, which switch fluorescence ratio is on record?
A: The switch fluorescence ratio was 1.01.

Q: CCCTGTTTTT was tested. Which switch fluorescence ratio did it give?
A: The switch fluorescence ratio was 0.997.

Q: GGACGTTGTA was tested. Which switch fluorescence ratio did it give?
A: The switch fluorescence ratio was 0.991.

Q: TTTGGCTAGG was tested. Which switch fluorescence ratio did it give?
A: The switch fluorescence ratio was 0.973.

Q: How did the switch fluorescence ratio turn out when AATCAGTTCC was run?
A: The switch fluorescence ratio was 1.05.

Q: For CGCACTGGAG, which switch fluorescence ratio is on record?
A: Its switch fluorescence ratio is 1.07.

Q: CGAATGGAA was tested. Which switch fluorescence ratio did it give?
A: Its switch fluorescence ratio is 1.05.

Q: TGACTCCCCA was tested. Which switch fluorescence ratio did it give?
A: The switch fluorescence ratio was 1.96.

Q: For CACTGGCGCT, which switch fluorescence ratio is on record?
A: The switch fluorescence ratio was 1.05.

Q: With GTTGTCATA as the sequence, how does the switch fluorescence ratio read?
A: Its switch fluorescence ratio is 0.966.

Q: AGATGGATGA was tested. Which switch fluorescence ratio did it give?
A: Its switch fluorescence ratio is 1.03.

Q: GCGTTGCGGG was tested. Which switch fluorescence ratio did it give?
A: Its switch fluorescence ratio is 1.04.

Q: How did the switch fluorescence ratio turn out when AAATTTCAGT was run?
A: The switch fluorescence ratio was 1.

Q: Which switch fluorescence ratio does the source give for TCGACGCCGA here?
A: The switch fluorescence ratio was 1.55.

Q: For GTTCAGGCTC, which switch fluorescence ratio is on record?
A: The switch fluorescence ratio was 1.

Q: For GTTTTATTCC, which switch fluorescence ratio is on record?
A: Its switch fluorescence ratio is 1.05.

Q: CATGCAAGCG was tested. Which switch fluorescence ratio did it give?
A: Its switch fluorescence ratio is 1.05.

Q: How did the switch fluorescence ratio turn out when TGTTTACAGA was run?
A: Its switch fluorescence ratio is 1.

Q: How did the switch fluorescence ratio turn out when TAGTTTCCGG was run?
A: The switch fluorescence ratio was 0.986.

Q: CGACATAGGG was tested. Which switch fluorescence ratio did it give?
A: The switch fluorescence ratio was 1.07.

Q: CAAGGTGGTA was tested. Which switch fluorescence ratio did it give?
A: Its switch fluorescence ratio is 1.04.

Q: With TACCTAGCA as the sequence, how does the switch fluorescence ratio read?
A: Its switch fluorescence ratio is 0.996.

Q: For AGCGCGGTCG, which switch fluorescence ratio is on record?
A: The switch fluorescence ratio was 1.06.

Q: CTAGTTTCGT was tested. Which switch fluorescence ratio did it give?
A: Its switch fluorescence ratio is 1.04.

Q: How did the switch fluorescence ratio turn out when TACTTGGGTT was run?
A: The switch fluorescence ratio was 1.03.

Q: Which switch fluorescence ratio does the source give for CATGGCCCGG here?
A: The switch fluorescence ratio was 0.939.

Q: With CCCTTGGGGT as the sequence, how does the switch fluorescence ratio read?
A: The switch fluorescence ratio was 4.31.

Q: Which switch fluorescence ratio does the source give for ATTTATTTTC here?
A: The switch fluorescence ratio was 0.993.

Q: How did the switch fluorescence ratio turn out when CGCAGTTTTT was run?
A: Its switch fluorescence ratio is 1.07.

Q: GGTAGTTTGG was tested. Which switch fluorescence ratio did it give?
A: The switch fluorescence ratio was 1.04.

Q: With GATCATTGCG as the sequence, how does the switch fluorescence ratio read?
A: The switch fluorescence ratio was 0.959.

Q: With CGATTGTG as the sequence, how does the switch fluorescence ratio read?
A: Its switch fluorescence ratio is 0.957.

Q: With CCACACGTGC as the sequence, how does the switch fluorescence ratio read?
A: The switch fluorescence ratio was 1.25.

Q: How did the switch fluorescence ratio turn out when ACAGGCAGTG was run?
A: Its switch fluorescence ratio is 1.04.

Q: For ATATAATCTT, which switch fluorescence ratio is on record?
A: The switch fluorescence ratio was 1.01.

Q: For AACCCACAAC, which switch fluorescence ratio is on record?
A: The switch fluorescence ratio was 1.29.

Q: For AACGCAACAG, which switch fluorescence ratio is on record?
A: Its switch fluorescence ratio is 2.22.

Q: For AGGTCAGTCC, which switch fluorescence ratio is on record?
A: The switch fluorescence ratio was 0.997.

Q: For CAGTGCTCAG, which switch fluorescence ratio is on record?
A: The switch fluorescence ratio was 1.

Q: Which switch fluorescence ratio does the source give for TGCAAACAGC here?
A: The switch fluorescence ratio was 1.01.

Q: For CTTATGTTCG, which switch fluorescence ratio is on record?
A: The switch fluorescence ratio was 0.941.

Q: Which switch fluorescence ratio does the source give for TATATTGTGC here?
A: The switch fluorescence ratio was 1.04.

Q: For CTAGGTCTCA, which switch fluorescence ratio is on record?
A: Its switch fluorescence ratio is 0.987.

Q: For ATCAACCCCT, which switch fluorescence ratio is on record?
A: The switch fluorescence ratio was 1.09.

Q: TAGTGTCCGC was tested. Which switch fluorescence ratio did it give?
A: The switch fluorescence ratio was 1.03.

Q: For CGTGGATGGC, which switch fluorescence ratio is on record?
A: The switch fluorescence ratio was 0.94.

Q: GAGATTAAGG was tested. Which switch fluorescence ratio did it give?
A: The switch fluorescence ratio was 1.01.

Q: How did the switch fluorescence ratio turn out when TGGGACCCA was run?
A: The switch fluorescence ratio was 0.956.

Q: With CCATAATCGC as the sequence, how does the switch fluorescence ratio read?
A: The switch fluorescence ratio was 1.04.

Q: ATCCCTTTTG was tested. Which switch fluorescence ratio did it give?
A: Its switch fluorescence ratio is 0.964.

Q: CAGTACTTTT was tested. Which switch fluorescence ratio did it give?
A: Its switch fluorescence ratio is 0.952.

Q: With CTCACGGTTG as the sequence, how does the switch fluorescence ratio read?
A: Its switch fluorescence ratio is 0.971.

Q: Which switch fluorescence ratio does the source give for ATTCAATAT here?
A: The switch fluorescence ratio was 1.03.

Q: How did the switch fluorescence ratio turn out when GCCCTCACCC was run?
A: Its switch fluorescence ratio is 1.07.

Q: GCGACCTGAG was tested. Which switch fluorescence ratio did it give?
A: Its switch fluorescence ratio is 1.1.

Q: CGGCCACTTC was tested. Which switch fluorescence ratio did it give?
A: Its switch fluorescence ratio is 0.977.

Q: How did the switch fluorescence ratio turn out when TGACTGGGCA was run?
A: The switch fluorescence ratio was 0.934.

Q: For GAGCCGGGGG, which switch fluorescence ratio is on record?
A: Its switch fluorescence ratio is 0.878.

Q: For TTTTCCATTC, which switch fluorescence ratio is on record?
A: The switch fluorescence ratio was 0.989.

Q: How did the switch fluorescence ratio turn out when TAACGCAAAG was run?
A: Its switch fluorescence ratio is 1.54.

Q: With GTGATGGGGC as the sequence, how does the switch fluorescence ratio read?
A: Its switch fluorescence ratio is 1.15.

Q: For TATAACCGGT, which switch fluorescence ratio is on record?
A: The switch fluorescence ratio was 0.999.

Q: TGATTGTGTC was tested. Which switch fluorescence ratio did it give?
A: Its switch fluorescence ratio is 1.05.

Q: AATGAAAAAA was tested. Which switch fluorescence ratio did it give?
A: Its switch fluorescence ratio is 1.

Q: With TCGGTGAAAA as the sequence, how does the switch fluorescence ratio read?
A: The switch fluorescence ratio was 0.976.

Q: How did the switch fluorescence ratio turn out when CGTCGCTTTC was run?
A: Its switch fluorescence ratio is 0.98.

Q: CCTTGTTTTC was tested. Which switch fluorescence ratio did it give?
A: The switch fluorescence ratio was 1.03.

Q: With GTTTACGGAA as the sequence, how does the switch fluorescence ratio read?
A: Its switch fluorescence ratio is 1.03.

Q: Which switch fluorescence ratio does the source give for TCTAGTCAGT here?
A: Its switch fluorescence ratio is 0.978.

Q: With TCCCAAGTGT as the sequence, how does the switch fluorescence ratio read?
A: The switch fluorescence ratio was 0.989.

Q: For GATGGCTTGT, which switch fluorescence ratio is on record?
A: The switch fluorescence ratio was 0.97.

Q: How did the switch fluorescence ratio turn out when ACTCAGCAAA was run?
A: Its switch fluorescence ratio is 3.37.

Q: For CCCTGGCGCG, which switch fluorescence ratio is on record?
A: The switch fluorescence ratio was 1.05.

Q: AGTCCAGATA was tested. Which switch fluorescence ratio did it give?
A: Its switch fluorescence ratio is 0.986.

Q: With GTTGGGGT as the sequence, how does the switch fluorescence ratio read?
A: The switch fluorescence ratio was 1.

Q: GATATTCGTT was tested. Which switch fluorescence ratio did it give?
A: Its switch fluorescence ratio is 1.01.

Q: Which switch fluorescence ratio does the source give for AAAAAGTTCC here?
A: Its switch fluorescence ratio is 1.05.

Q: Which switch fluorescence ratio does the source give for CTCTGATAGT here?
A: The switch fluorescence ratio was 0.993.
